Whole data set: some 33,000 sequences, median “E-score (-0.5 to 0.5)” near -0.013, cut for the highest 2% near 0.3. The list shows a part of the results.
These sequences were tested against T1, Msn1 (UniProt P22148) (assay: PBM E-score (8-mer binding enrichment) (E-score (-0.5 to 0.5)); higher = stronger / more preferred TF binding; most listed sequences are background and not binding sites). Details: protein concentration: 200 nM; construct: GST-full length.
T1 sequence: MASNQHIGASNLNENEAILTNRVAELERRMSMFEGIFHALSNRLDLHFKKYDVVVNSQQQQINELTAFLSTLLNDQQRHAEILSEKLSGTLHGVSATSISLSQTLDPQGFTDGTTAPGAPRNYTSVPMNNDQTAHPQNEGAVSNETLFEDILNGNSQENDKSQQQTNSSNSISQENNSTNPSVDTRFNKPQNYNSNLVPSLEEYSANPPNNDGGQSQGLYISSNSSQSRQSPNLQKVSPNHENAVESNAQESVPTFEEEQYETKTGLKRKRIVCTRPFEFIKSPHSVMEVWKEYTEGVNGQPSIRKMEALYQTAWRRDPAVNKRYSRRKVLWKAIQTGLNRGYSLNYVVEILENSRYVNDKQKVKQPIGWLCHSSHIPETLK
Outline: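 Bound GST-tagged yeast transcription factors, applied at about 100-200 nM to double-stranded universal all-10-mer Agilent arrays, were detected with fluorescent anti-GST. Scans were normalised with masliner. A modified Wilcoxon-Mann-Whitney statistic, the E-score, was assigned to each ungapped eight-base word pooled with its reverse complement by the Universal PBM Analysis Suite.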
CCTGCAGA was tested, and the “PBM E-score” value was -0.0096. In the case of CACAATGC, the “PBM E-score” value is reported as -0.116. AACCGCCC was tested, and the “PBM E-score” value was -0.223. For ACATTCTG, the “PBM E-score” value was 0.162. In the case of CAAGAGTC, the “PBM E-score” value is reported as 0.00433. For CCCAGATC, the “PBM E-score” value was -0.236. GTTTGTAA was tested, and the “PBM E-score” value was 0.126. With ATGGAAAC the “PBM E-score” value was -0.152. For CAGACAAA, the “PBM E-score” value was 0.451. With CACTGGGG the “PBM E-score” value was -0.105. For GCATAACC, the “PBM E-score” value was -0.0797. In the case of ATACCCGG, the “PBM E-score” value is reported as -0.0671. CGCTCCCA was tested, and the “PBM E-score” value was -0.017. With CCTAACTA the “PBM E-score” value was 0.172. For CTACACAA, the “PBM E-score” value was 0.0957. In the case of GGCACCCA, the “PBM E-score” value is reported as -0.268. ATAGCCGG was tested, and the “PBM E-score” value was 0.116. In the case of CCTCCATA, the “PBM E-score” value is reported as 0.0338. In the case of AAAGCGTT, the “PBM E-score” value is reported as 0.00931. In the case of CCCGTAGG, the “PBM E-score” value is reported as -0.267. For CGAGTTAG, the “PBM E-score” value was 0.0955. For GACAGGGA, the “PBM E-score” value was 0.0869. CGACAGCG was tested, and the “PBM E-score” value was 0.00293. In the case of TACGAATA, the “PBM E-score” value is reported as 0.188. With AGTATCGA the “PBM E-score” value was 0.127. ACACCCAA was tested, and the “PBM E-score” value was -0.0114. GGACACTA was tested, and the “PBM E-score” value was 0.217. AGGCATTG was tested, and the “PBM E-score” value was -0.211. With CGCACTGA the “PBM E-score” value was 0.058. For ACAGGACA, the “PBM E-score” value was 0.421. In the case of GCTAAGGA, the “PBM E-score” value is reported as -0.102. ACCCGCCG was tested, and the “PBM E-score” value was 0.00546. AGACTAGC was tested, and the “PBM E-score” value was -0.163. With CTAGCGTA the “PBM E-score” value was -0.199. AAGTTGCT was tested, and the “PBM E-score” value was -0.138. ACTTTTGC was tested, and the “PBM E-score” value was 0.144. In the case of GTACCTAC, the “PBM E-score” value is reported as 0.0568. ACCTGTTA was tested, and the “PBM E-score” value was -0.101. For CTCACCGA, the “PBM E-score” value was -0.0331. For GGTGTTCA, the “PBM E-score” value was -0.00074. In the case of AGGTGACC, the “PBM E-score” value is reported as 0.02. With AGCAGCAT the “PBM E-score” value was -0.0944. In the case of CGAGCTGA, the “PBM E-score” value is reported as 0.127. For GATGTATA, the “PBM E-score” value was -0.11. With ACTACTCC the “PBM E-score” value was -0.106. For TCCTGGAA, the “PBM E-score” value was -0.0415. For CCCACACC, the “PBM E-score” value was -0.101. CCAAGGGA was tested, and the “PBM E-score” value was -0.0389. For CCGCGTAC, the “PBM E-score” value was -0.0584. AACTTCTG was tested, and the “PBM E-score” value was 0.0608. In the case of ACCGACGC, the “PBM E-score” value is reported as -0.203. In the case of CCTTCACA, the “PBM E-score” value is reported as -0.0989. In the case of CACGGCGA, the “PBM E-score” value is reported as 0.0227. For AATCGAGC, the “PBM E-score” value was -0.125. With CTGACGGA the “PBM E-score” value was 0.0868. With ACACCAAG the “PBM E-score” value was -0.0187. In the case of TATGGGGA, the “PBM E-score” value is reported as 0.123. For AAGGACGT, the “PBM E-score” value was 0.32. With ACATGCCG the “PBM E-score” value was 0.169. For ATCATAGA, the “PBM E-score” value was 0.055. With TAGCGCTA the “PBM E-score” value was -0.119. ATCGGTAC was tested, and the “PBM E-score” value was 0.0907. For CTGGCTTC, the “PBM E-score” value was -0.281. ACGAAAAC was tested, and the “PBM E-score” value was 0.301. In the case of CTATCGTC, the “PBM E-score” value is reported as -0.115. ATCCCAAC was tested, and the “PBM E-score” value was -0.00635. In the case of CAAAACTG, the “PBM E-score” value is reported as 0.127. AAGCGGCT was tested, and the “PBM E-score” value was -0.0338. In the case of AAAGTCGT, the “PBM E-score” value is reported as 0.223. CTAGTAAA was tested, and the “PBM E-score” value was 0.167. In the case of ACAGGCGA, the “PBM E-score” value is reported as -0.0494. For CGACTGCC, the “PBM E-score” value was -0.094. In the case of ATTAAACG, the “PBM E-score” value is reported as 0.221. For GACCTTCA, the “PBM E-score” value was -0.153. With ACAGCTCG the “PBM E-score” value was -0.137. With AGAATGCG the “PBM E-score” value was -0.133. For AGCAGCCG, the “PBM E-score” value was -0.125. In the case of ATCTCGCA, the “PBM E-score” value is reported as 0.233. With TCAGCCAA the “PBM E-score” value was -0.138. With AAGACTAA the “PBM E-score” value was 0.143. For AATGTGAG, the “PBM E-score” value was -0.0249. In the case of GTTTAAAA, the “PBM E-score” value is reported as 0.0898. With ATGTCACA the “PBM E-score” value was 0.363. For TGATGGAA, the “PBM E-score” value was 0.0341. With CGCGTCAC the “PBM E-score” value was 0.132. CTCTTGGC was tested, and the “PBM E-score” value was -0.293. With CCTTTGAC the “PBM E-score” value was -0.139. With GAAGCTGC the “PBM E-score” value was 0.0141. For CCAACTTA, the “PBM E-score” value was 0.0784. In the case of ATTTCAGG, the “PBM E-score” value is reported as -0.0254. With GCCATTGA the “PBM E-score” value was 0.00063. In the case of ATGTTGGC, the “PBM E-score” value is reported as -0.0626. For AAGTGACC, the “PBM E-score” value was -0.126. With CGAAGGCA the “PBM E-score” value was -0.128. For AACAGGCA, the “PBM E-score” value was 0.0606. For CTTACACA, the “PBM E-score” value was -0.0523. With GTCACCCA the “PBM E-score” value was -0.051. CGTTTAGA was tested, and the “PBM E-score” value was 0.0804. GAGCGCCA was tested, and the “PBM E-score” value was -0.352. In the case of ACTCCATA, the “PBM E-score” value is reported as -0.2. CGTCGACC was tested, and the “PBM E-score” value was 0.12. For ATAGCCGC, the “PBM E-score” value was -0.0788. ACGGCGCG was tested, and the “PBM E-score” value was 0.141. CACCGCAG was tested, and the “PBM E-score” value was -0.209. GTAGCAAC was tested, and the “PBM E-score” value was -0.0334. In the case of CACGTTGG, the “PBM E-score” value is reported as -0.0386. AAGACCAG was tested, and the “PBM E-score” value was -0.205. AACTACGC was tested, and the “PBM E-score” value was 0.0124. With GTCCACAC the “PBM E-score” value was 0.267. CTGGAATA was tested, and the “PBM E-score” value was 0.161. ACTGAGTA was tested, and the “PBM E-score” value was -0.15. In the case of GATATATC, the “PBM E-score” value is reported as 0.143. With CGTCTGCC the “PBM E-score” value was -0.00954. For GCTCGGAC, the “PBM E-score” value was 0.246. With ATTCTTGC the “PBM E-score” value was 0.074. With CGTGGAAA the “PBM E-score” value was 0.0488. For ACAGCAAA, the “PBM E-score” value was 0.095. With CTTGCTCA the “PBM E-score” value was -0.0607. ACATACAT was tested, and the “PBM E-score” value was 0.309. In the case of AATATGGG, the “PBM E-score” value is reported as -0.0502. AGAGCATA was tested, and the “PBM E-score” value was -0.0803. For CGCAGCAC, the “PBM E-score” value was -0.00518. With ACATTTCA the “PBM E-score” value was 0.363. With ATAATGCA the “PBM E-score” value was -0.0952. AATCCCGA was tested, and the “PBM E-score” value was 0.238. For ATAGTTCA, the “PBM E-score” value was 0.0157. For GCCGGAAC, the “PBM E-score” value was 0.122. ACACCCGG was tested, and the “PBM E-score” value was -0.17. In the case of AGTTGCAT, the “PBM E-score” value is reported as 0.0278. With CGCTACAG the “PBM E-score” value was -0.163. In the case of AAAGCGAT, the “PBM E-score” value is reported as 0.00359. For ATGCTACC, the “PBM E-score” value was -0.126. With GAGAAAAA the “PBM E-score” value was 0.209. With CACCAAGG the “PBM E-score” value was -0.297. In the case of TCCGGTAA, the “PBM E-score” value is reported as 0.124. CAAGACGC was tested, and the “PBM E-score” value was 0.0107. With GGAAAAAA the “PBM E-score” value was 0.137. ATTCGATA was tested, and the “PBM E-score” value was 0.103. AGAAGCAT was tested, and the “PBM E-score” value was -0.0953. With CGTAATGC the “PBM E-score” value was 0.0985. AATACCTA was tested, and the “PBM E-score” value was 0.111. TCAAGAAA was tested, and the “PBM E-score” value was 0.233. In the case of AGGAAAAA, the “PBM E-score” value is reported as 0.0925. GCCGCAAA was tested, and the “PBM E-score” value was 0.0309. In the case of ACCCTAAA, the “PBM E-score” value is reported as -0.0528. TATTAGAA was tested, and the “PBM E-score” value was 0.248. GTATACTA was tested, and the “PBM E-score” value was -0.228. In the case of ACCATGGG, the “PBM E-score” value is reported as -0.161. GCAGGTAC was tested, and the “PBM E-score” value was -0.0895. With CCCATGGG the “PBM E-score” value was 0.0852. With AGAAAATC the “PBM E-score” value was 0.0346. With ACGATTTC the “PBM E-score” value was 0.0879. In the case of AGATCGAT, the “PBM E-score” value is reported as 0.0907. For CAGCGGGA, the “PBM E-score” value was -0.0621. For AGTCTCTG, the “PBM E-score” value was -0.0413. For ATCAAGTC, the “PBM E-score” value was 0.0654. ACACACCG was tested, and the “PBM E-score” value was 0.0297. In the case of CGCGAATA, the “PBM E-score” value is reported as 0.103. CAGACGTC was tested, and the “PBM E-score” value was 0.0698. CAGAAATC was tested, and the “PBM E-score” value was 0.0396. ACCCACAG was tested, and the “PBM E-score” value was -0.00035. For CGATTTTA, the “PBM E-score” value was 0.0688. CCGTGAAC was tested, and the “PBM E-score” value was 0.0411. In the case of CCTGGTTC, the “PBM E-score” value is reported as -0.0645. In the case of CTATGTCC, the “PBM E-score” value is reported as 0.461. In the case of AAGGTTCT, the “PBM E-score” value is reported as -0.103. With ACGATCTC the “PBM E-score” value was -0.0225. In the case of AAGAAAAC, the “PBM E-score” value is reported as 0.0667. ATATCGAA was tested, and the “PBM E-score” value was 0.0229. In the case of ATACGGAC, the “PBM E-score” value is reported as 0.257. For CTCAGGTA, the “PBM E-score” value was -0.0235. ACGGCTCC was tested, and the “PBM E-score” value was -0.0953.
